{"source": "the supplement of paper PMC3334620", "note": "Over roughly 33,000 sequences, “E-score (-0.5 to 0.5)” has its median near -0.054; the highest 2% begin near 0.39. The list shows a part of the results."}
{"target": "Ylr278c (UniProt Q05854)", "assay": "PBM E-score (8-mer binding enrichment) (E-score (-0.5 to 0.5)); higher = stronger / more preferred TF binding; most listed sequences are background and not binding sites", "settings": "protein concentration: 200 nM; construct: GST-DNA-binding domain", "summary_of_the_method": "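PURExpress in vitro transcription/translation supplied GST-tagged yeast transcription factors, either full-length or DNA-binding domain. Applied at about 100-200 nM to universal all-10-mer Agilent arrays double-stranded by primer extension, the bound protein was detected with fluorescent anti-GST. E-scores, modified Wilcoxon-Mann-Whitney statistics, were given by the Universal PBM Analysis Suite to ungapped eight-base words pooled with their reverse complements after masliner normalisation.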"}
{"sequence": "GTCAGGAC", "PBM E-score": -0.266}
{"sequence": "CCTAACCC", "PBM E-score": -0.0948}
{"sequence": "ACGATGCT", "PBM E-score": -0.0929}
{"sequence": "AGCGCCCG", "PBM E-score": 0.118}
{"sequence": "ACACCGTC", "PBM E-score": 0.157}
{"sequence": "CTAGTAGA", "PBM E-score": -0.103}
{"sequence": "CACGGCCC", "PBM E-score": -0.0124}
{"sequence": "CTTGGGAA", "PBM E-score": -0.0652}
{"sequence": "AATAGAAC", "PBM E-score": 0.101}
{"sequence": "CAGTTGAC", "PBM E-score": 0.0904}
{"sequence": "CCGCGCCA", "PBM E-score": 0.182}
{"sequence": "GCGTTGAA", "PBM E-score": 0.0119}
{"sequence": "GTCGATCA", "PBM E-score": -0.216}
{"sequence": "GCCCGGTA", "PBM E-score": 0.26}
{"sequence": "GGTTTCAA", "PBM E-score": 0.169}
{"sequence": "ACTTTCTC", "PBM E-score": 0.16}
{"sequence": "CGTAAATA", "PBM E-score": 0.0844}
{"sequence": "ATTTTCCG", "PBM E-score": 0.421}
{"sequence": "ATTCGTTA", "PBM E-score": -0.127}
{"sequence": "AATCTTGA", "PBM E-score": -0.172}
{"sequence": "CGGACTGC", "PBM E-score": 0.318}
{"sequence": "AATGCATG", "PBM E-score": -0.0764}
{"sequence": "ATTGAGCG", "PBM E-score": 0.0335}
{"sequence": "GCTGCCCC", "PBM E-score": -0.0402}
{"sequence": "AGGCATGG", "PBM E-score": -0.0498}
{"sequence": "ACCCATAA", "PBM E-score": 0.103}
{"sequence": "CAGTTAAC", "PBM E-score": 0.135}
{"sequence": "GCCCCCTA", "PBM E-score": -0.281}
{"sequence": "AGATCGAG", "PBM E-score": -0.0887}
{"sequence": "CGCCCGCA", "PBM E-score": 0.221}
{"sequence": "CACGCTAA", "PBM E-score": -0.0491}
{"sequence": "AGTGCCTG", "PBM E-score": -0.112}
{"sequence": "AGCATGCC", "PBM E-score": -0.0212}
{"sequence": "GGAAGTCA", "PBM E-score": 0.111}
{"sequence": "GGGGTCAA", "PBM E-score": 0.0985}
{"sequence": "AAACGAGA", "PBM E-score": 0.0181}
{"sequence": "AATGCTTA", "PBM E-score": -0.223}
{"sequence": "GATCCCCA", "PBM E-score": 0.0317}
{"sequence": "CGAATCTA", "PBM E-score": -0.127}
{"sequence": "TGGCAGAA", "PBM E-score": -0.103}
{"sequence": "CCCTGTTC", "PBM E-score": -0.195}
{"sequence": "CAACTGGG", "PBM E-score": -0.0669}
{"sequence": "ATCTCGCG", "PBM E-score": 0.0561}
{"sequence": "GAGCACAC", "PBM E-score": -0.212}
{"sequence": "CTTCCAAG", "PBM E-score": -0.204}
{"sequence": "GTTGCATA", "PBM E-score": -0.161}
{"sequence": "AGTCTCAG", "PBM E-score": -0.28}
{"sequence": "ATCTACTA", "PBM E-score": -0.00413}
{"sequence": "AAGCCATG", "PBM E-score": -0.0953}
{"sequence": "ATGTTAAC", "PBM E-score": -0.0506}
{"sequence": "ACTGTTTA", "PBM E-score": -0.202}
{"sequence": "AACATAAG", "PBM E-score": -0.0375}
{"sequence": "CACTCAGG", "PBM E-score": -0.085}
{"sequence": "AACCCACC", "PBM E-score": 0.211}
{"sequence": "GACACCGA", "PBM E-score": 0.129}
{"sequence": "AGCAGCTA", "PBM E-score": -0.241}
{"sequence": "CCAATCGA", "PBM E-score": -0.112}
{"sequence": "GATACTTA", "PBM E-score": -0.107}
{"sequence": "GCCTAGGC", "PBM E-score": -0.133}
{"sequence": "ACGTCTAG", "PBM E-score": -0.251}
{"sequence": "CCTGGCTC", "PBM E-score": -0.101}
{"sequence": "AGTGACCG", "PBM E-score": 0.0485}
{"sequence": "ACTCACGG", "PBM E-score": 0.204}
{"sequence": "ACCGTGGA", "PBM E-score": 0.147}
{"sequence": "CAGTAAGA", "PBM E-score": -0.0767}
{"sequence": "CCGACGAA", "PBM E-score": 0.324}
{"sequence": "AGTGGTGC", "PBM E-score": -0.0921}
{"sequence": "AGGTGAGC", "PBM E-score": -0.0782}
{"sequence": "ACCCCCTG", "PBM E-score": -0.225}
{"sequence": "GCCTGACC", "PBM E-score": -0.00172}
{"sequence": "GTCAACCA", "PBM E-score": -0.208}
{"sequence": "ATGACGAC", "PBM E-score": -0.0126}
{"sequence": "ACTAAACA", "PBM E-score": -0.00902}
{"sequence": "CGTCATTA", "PBM E-score": -0.0302}
{"sequence": "AACCAACA", "PBM E-score": -0.129}
{"sequence": "ATCATCCC", "PBM E-score": -0.101}
{"sequence": "CGTTTATC", "PBM E-score": 0.083}
{"sequence": "ATAGTGGG", "PBM E-score": -0.0278}
{"sequence": "ACCACGCG", "PBM E-score": 0.061}
{"sequence": "CGCGTGGA", "PBM E-score": -0.0162}
{"sequence": "CGTGGCAG", "PBM E-score": -0.156}
{"sequence": "GTTAGGGA", "PBM E-score": -0.234}
{"sequence": "CACGTTCG", "PBM E-score": 0.0568}
{"sequence": "CTAGGAGA", "PBM E-score": -0.154}
{"sequence": "AACCGCGT", "PBM E-score": 0.0923}
{"sequence": "ATACAAAC", "PBM E-score": 0.0395}
{"sequence": "GTACTTAA", "PBM E-score": -0.169}
{"sequence": "CACAGGTC", "PBM E-score": -0.0954}
{"sequence": "ATAGGCCG", "PBM E-score": 0.251}
{"sequence": "GAATTGGA", "PBM E-score": -0.146}
{"sequence": "CGTTGCCC", "PBM E-score": 0.0478}
{"sequence": "CCCCTAAG", "PBM E-score": -0.24}
{"sequence": "CACGTAGC", "PBM E-score": -0.143}
{"sequence": "CATGAACC", "PBM E-score": 0.0357}
{"sequence": "TGACTCCA", "PBM E-score": -0.218}
{"sequence": "TTAATAAA", "PBM E-score": 0.00662}
{"sequence": "GTAATGGA", "PBM E-score": -0.117}
{"sequence": "GACCATGC", "PBM E-score": -0.0555}
{"sequence": "AAGACTTC", "PBM E-score": -0.186}
{"sequence": "ACTCCTGG", "PBM E-score": -0.0351}
{"sequence": "CCGATACG", "PBM E-score": 0.306}
{"sequence": "CCGTCAGG", "PBM E-score": 0.103}
{"sequence": "AGCCTGCC", "PBM E-score": -0.0346}
{"sequence": "GGCGCCGA", "PBM E-score": 0.31}
{"sequence": "AACGAACA", "PBM E-score": 0.154}
{"sequence": "CAACGTCA", "PBM E-score": -0.062}
{"sequence": "TCCAAAAA", "PBM E-score": -0.103}
{"sequence": "GAGACCGA", "PBM E-score": 0.141}
{"sequence": "AGCGAGAA", "PBM E-score": -0.0276}
{"sequence": "ACGTATCG", "PBM E-score": -0.161}
{"sequence": "TCAACAGA", "PBM E-score": -0.118}
{"sequence": "CGCAGTGC", "PBM E-score": -0.0783}
{"sequence": "ACGTGCTC", "PBM E-score": -0.00716}
{"sequence": "CAGAAGCA", "PBM E-score": -0.12}
{"sequence": "ACGGCTCA", "PBM E-score": -0.0837}
{"sequence": "ATACTAAC", "PBM E-score": 0.036}
{"sequence": "CCCGGGCG", "PBM E-score": 0.291}
{"sequence": "ACGTACTG", "PBM E-score": -0.138}
{"sequence": "CACGTAGG", "PBM E-score": -0.272}
{"sequence": "CGGAATTC", "PBM E-score": 0.464}
{"sequence": "ACCGTGCC", "PBM E-score": -0.0784}
{"sequence": "CTTATTAC", "PBM E-score": -0.138}
{"sequence": "ACCTACTG", "PBM E-score": -0.152}
{"sequence": "CTGCGAGA", "PBM E-score": -0.274}
{"sequence": "GATCACCC", "PBM E-score": -0.0849}
{"sequence": "ACTGCTGG", "PBM E-score": -0.169}
{"sequence": "CGTGCACC", "PBM E-score": -0.0232}
{"sequence": "ACAATTCA", "PBM E-score": -0.116}
{"sequence": "TCCTGTAA", "PBM E-score": -0.118}
{"sequence": "ACACCTGC", "PBM E-score": -0.14}
{"sequence": "ATGTATTC", "PBM E-score": 0.163}
{"sequence": "CTCGGCCA", "PBM E-score": 0.136}
{"sequence": "ACGAGTAA", "PBM E-score": 0.0026}
{"sequence": "GCTCAGTA", "PBM E-score": -0.159}
{"sequence": "ATACAGCG", "PBM E-score": -0.0771}
{"sequence": "CTTATAAC", "PBM E-score": -0.0795}
{"sequence": "AAAGTTTG", "PBM E-score": 0.00691}
{"sequence": "CTACCCAC", "PBM E-score": -0.211}
{"sequence": "TATCATGA", "PBM E-score": -0.292}
{"sequence": "GACCCGAC", "PBM E-score": 0.229}
{"sequence": "ACCTTATA", "PBM E-score": -0.0665}
{"sequence": "CCAAACGG", "PBM E-score": 0.0912}
{"sequence": "ACCTAGAA", "PBM E-score": -0.19}
{"sequence": "ATTTATAC", "PBM E-score": 0.134}
{"sequence": "AATTGGCC", "PBM E-score": -0.118}
{"sequence": "GCCTTCCA", "PBM E-score": -0.181}
{"sequence": "CGCAGGTA", "PBM E-score": 0.102}
{"sequence": "AGCCGGAC", "PBM E-score": 0.407}
{"sequence": "GGGGAGAA", "PBM E-score": 0.0935}
{"sequence": "CGCCCCCC", "PBM E-score": -0.0927}
{"sequence": "CGTTACTC", "PBM E-score": -0.0712}
{"sequence": "CCGGTTAA", "PBM E-score": 0.384}
{"sequence": "GTAAAGTA", "PBM E-score": -0.0346}
{"sequence": "CAAGTGTC", "PBM E-score": -0.236}
{"sequence": "AACCAGAG", "PBM E-score": -0.201}
{"sequence": "CCAATGTA", "PBM E-score": -0.0158}
{"sequence": "GCACGACC", "PBM E-score": -0.166}
{"sequence": "ATTCCCTC", "PBM E-score": -0.0673}
{"sequence": "AAGCGGGT", "PBM E-score": 0.0864}
{"sequence": "CCTTAAGA", "PBM E-score": -0.303}
{"sequence": "GAACAGAA", "PBM E-score": -0.0459}
{"sequence": "ATATAGAG", "PBM E-score": -0.169}
{"sequence": "ACCTCCTA", "PBM E-score": -0.101}
{"sequence": "CAGAATCG", "PBM E-score": 0.00258}
{"sequence": "AGTTGGAT", "PBM E-score": -0.0664}
{"sequence": "CGACATAC", "PBM E-score": 0.0107}
{"sequence": "GCAGGATA", "PBM E-score": -0.221}
{"sequence": "AGTTACAC", "PBM E-score": -0.0994}
{"sequence": "GACGGCAC", "PBM E-score": 0.0236}
{"sequence": "ACACCGTG", "PBM E-score": 0.143}
{"sequence": "AATGGCGA", "PBM E-score": 0.125}
{"sequence": "CCGGTTGC", "PBM E-score": 0.316}
